Test results from PubChem BioAssay AID1460 (National Center for Advancing Translational Sciences (NCATS), 2008).
Hit rate of the full screen: of about 270,000 compounds, about 5,800 (2.1%) were called active. The shares of active, inactive and inconclusive entries below differ from those in the screen. Calls come from the whole dose curve; as a rule, active = well fitted inhibition curve with a large enough effect; inconclusive = small, poorly fitted or top-dose-only effect; inactive = flat fitted curve, though single readings scatter. Potencies of inconclusive entries are doubtful fits and often do not repeat.
% is set by controls: 0 for no effect and ±100 for the full control effect; potency is the fitted concentration of half-maximal effect; tags give direction and shape of the fitted curve.
Note: nearly all actives have a fitted effect of over 55% in size.

Each compound was assayed against Microtubule-associated protein tau (Homo sapiens) (UniProt P10636) (assay: qHTS for Inhibitors of Tau Fibril Formation, Thioflavin T Binding). Conditions: recombinant tau K18 P301L (four-repeat tau fragment), heparin-induced fibrillization, ThT fluorescence; series mostly up to 57.4 µM.
Chain of UniProt P10636 (P10636 whole entry, looked up, the tested form may be a part): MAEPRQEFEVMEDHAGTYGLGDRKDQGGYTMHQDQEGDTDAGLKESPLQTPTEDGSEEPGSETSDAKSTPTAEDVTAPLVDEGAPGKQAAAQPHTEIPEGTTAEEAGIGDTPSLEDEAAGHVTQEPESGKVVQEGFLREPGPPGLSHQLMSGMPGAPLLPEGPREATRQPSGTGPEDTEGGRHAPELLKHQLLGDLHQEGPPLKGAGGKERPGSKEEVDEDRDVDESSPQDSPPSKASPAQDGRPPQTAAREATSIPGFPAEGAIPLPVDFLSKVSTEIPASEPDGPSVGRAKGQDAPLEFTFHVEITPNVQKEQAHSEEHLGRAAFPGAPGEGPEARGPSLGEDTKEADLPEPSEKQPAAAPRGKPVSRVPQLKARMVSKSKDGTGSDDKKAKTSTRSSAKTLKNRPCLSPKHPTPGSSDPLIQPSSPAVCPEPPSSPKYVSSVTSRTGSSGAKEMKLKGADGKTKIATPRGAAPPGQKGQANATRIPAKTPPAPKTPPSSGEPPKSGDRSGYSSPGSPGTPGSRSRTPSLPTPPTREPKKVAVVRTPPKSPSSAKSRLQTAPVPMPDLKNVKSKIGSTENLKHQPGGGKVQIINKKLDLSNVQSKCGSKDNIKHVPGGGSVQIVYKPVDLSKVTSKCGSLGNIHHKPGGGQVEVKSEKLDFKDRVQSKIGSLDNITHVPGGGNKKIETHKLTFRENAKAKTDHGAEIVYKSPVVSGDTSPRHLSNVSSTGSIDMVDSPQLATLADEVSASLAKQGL
Procedure, shortened: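 K18 P301L tau (15 uM + 0.24 uM Alexa 594-tagged), heparin 20 uM, NaOAc pH 7, 6 h 37 C; ThT 30 uM, 1 h RT, ex 450/em 510 nm.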
For COc1ccc2c(c1OC)C(=O)OC2CC(=O)c1ccc(O)cc1 (centres undefined), the Potency was “inactive”. For O=C1C2C3C=CC(C3)C2C(=O)N1/N=C/c1ccc(-c2ccccc2[N+](=O)[O-])o1 (centres undefined), the Potency was inconclusive: 14.1 µM [inhibitor, single point]. CC(C)Cn1c(=O)c2ccccc2n2c(CCC(=O)Nc3cccc(Cl)c3)nnc12 was tested, and the Potency was “inactive”. Cc1c(Cl)ccc2c(C(=O)NCCN3CCCCC3)cc(-c3ccccn3)nc12 was tested, and the Potency was “inactive”. Cc1ccc(OCC(=O)Nc2ccc(N(C)C)cc2)cc1 was tested, and the Potency was inconclusive: 1.12 µM [inhibitor, full curve]. For COc1ccc(-c2cnnn2-c2ccc(NC(=O)c3ccc(S(=O)(=O)N(C)C)cc3)cc2)cc1, the Potency was “inactive”. CCOc1ccccc1NC(=O)COC(=O)CSc1ccc(Cl)cc1 was tested, and the Potency was inconclusive: 39.8 µM [inhibitor, single point]. With Cc1cccc(OCC(=O)Nc2ccc(N3CCN(C(=O)c4ccccc4)CC3)cc2)c1 the Potency was inconclusive: 7.94 µM [inhibitor, full curve]. For O=C1CCC2c3ccc4ccccc4c3CCN12 (centres undefined), the Potency was inconclusive: 39.8 µM [inhibitor, single point]. For FC(F)(F)c1cccc(NC(=S)Nc2ccc(Cl)c(Cl)c2)c1, the Potency was inconclusive: 15.8 µM [activator, single point]. O=C(NCc1ccco1)c1cc(=O)c2ccccc2o1 was tested, and the Potency was “inactive”. With Cc1c(NC(=O)c2ccc(OC(C)C)cc2)cccc1-c1nc2ncccc2o1 the Potency was inconclusive: 35.5 µM [inhibitor, single point]. With COc1cc(/C=N/NC(=O)c2ccc(CSc3nc4ccccc4[nH]3)cc2)ccc1O the Potency was inconclusive: 5.62 µM [inhibitor, full curve]. In the case of CCCCc1ccc(/C=C2/C(=O)ON=C2c2ccccc2)s1, the Potency is reported as inconclusive: 31.6 µM [inhibitor, single point]. With CCOC(=O)c1sc(NC(=O)CCN2CCN(C)CC2)c(C(=O)OCC)c1C the Potency was “inactive”. With CCOC(=O)c1ccc(-n2c(CN3CCC(C(N)=O)CC3)nc3ccc([N+](=O)[O-])cc3c2=O)cc1 the Potency was inconclusive: 11.2 µM [inhibitor, partial curve]. In the case of Cc1ccc(C(=O)NCCn2c(C)cc3ccccc32)cc1C, the Potency is reported as inconclusive: 10 µM [inhibitor, partial curve]. COc1cc2[nH]c3c(Cl)ncnc3c2cc1OC was tested, and the Potency was inconclusive: 35.5 µM [inhibitor, single point]. In the case of Cc1ccc(C2=NN3C(C2)c2ccccc2OC32C(=O)Nc3ccccc32)cc1 (centres undefined), the Potency is reported as inconclusive: 31.6 µM [inhibitor, partial curve]. In the case of COc1ccc(-c2noc(CN3CCN(c4ccccc4)CC3)n2)cc1, the Potency is reported as inconclusive: 20 µM [inhibitor, partial curve]. O=C(CSc1ccsc1[N+](=O)[O-])N1CCN(c2ccccn2)CC1 was tested, and the Potency was inconclusive: 14.1 µM [inhibitor, partial curve]. For Cc1cc(C)cc(-n2nnc(-c3nc(-c4ccc5c(c4)OCO5)no3)c2C)c1, the Potency was inconclusive: 2.82 µM [inhibitor, partial curve]. In the case of CN(C)CCNC(=O)c1ccc(-n2c(-c3ccccc3)cc3c2CCCC3)cc1, the Potency is reported as inconclusive: 3.98 µM [inhibitor, full curve, poor fit]. In the case of Cc1onc(-c2ccccc2)c1C(=O)N/N=C/c1cc(Br)c(Br)o1, the Potency is reported as “inactive”. With CCCCS(=O)(=O)N1CCc2nc(-c3ccc(OC)cc3C)c3c(c2C1)CO[C@@H](c1ccccc1)C3 the activity, negative = inhibition was inactive: 0.326% [at 11.5 µM]. CC(CN(C)C)CN1c2ccccc2CCc2ccccc21 (centres undefined) was tested, and the Potency was “inactive”. With COc1ccc(OC)c(Nc2cc(C)nc3nc(C)nn23)c1 the Potency was “inactive”. With Cc1cc(=O)n2nc(N3CCC(C(=O)NC4CCCc5ccccc54)CC3)sc2n1 (centres undefined) the Potency was inconclusive: 12.6 µM [inhibitor, partial curve]. For NC(=O)c1cc[n+](CC2=C(C(=O)O)N3C(=O)C(NC(=O)C(c4ccccc4)S(=O)(=O)[O-])C3SC2)cc1 (centres undefined), the Potency was inconclusive: 31.6 µM [inhibitor, partial curve, poor fit]. In the case of COc1ccc(N2C(N)=C(C#N)C(c3ccsc3)C3=C2CCCC3=O)c(OC)c1 (centres undefined), the Potency is reported as inconclusive: 20 µM [inhibitor, partial curve]. CCOC(=O)c1c(NC(=O)CS(=O)(=O)c2ccc(C)cc2)sc2c1CCCCC2 was tested, and the Potency was “inactive”. In the case of CCOc1cccc(=O)c2c(C)n(-c3ccc(C(=O)O)cc3)c(C)c12, the Potency is reported as inconclusive: 28.2 µM [inhibitor, single point]. COc1ccc2c(c1)C1=NN(/C(C)=C\C(C)=O)C(c3ccccc3)C1CC2 (centres undefined) was tested, and the Potency was inconclusive: 28.2 µM [inhibitor, partial curve]. With COC(=O)c1ccc(OC(=O)C2CC(=O)N(c3cccc(C)c3)C2)cc1 (centres undefined) the Potency was inconclusive: 0.0251 µM [activator, full curve, poor fit]. In the case of COc1ccc(-c2cn3nc(N4CCC(C(=O)NCc5ccccc5F)CC4)sc3n2)cc1, the Potency is reported as inconclusive: 1.26 µM [inhibitor, full curve]. For Cc1ccc(NCc2cccn2-c2nnc(N3CCC(C(=O)NC(C)C)CC3)s2)cc1, the Potency was inconclusive: 22.4 µM [inhibitor, partial curve, poor fit]. COc1ccc(N2CCN(C(=O)CCCCCn3c(=O)[nH]c4ccsc4c3=O)CC2)cc1 was tested, and the Potency was inconclusive: 15.8 µM [inhibitor, partial curve]. COc1ccc(/C=C/C(=O)Nc2c(C(=O)O)[nH]c3ccccc23)cc1OC was tested, and the Potency was inconclusive: 20 µM [inhibitor, partial curve]. With CCOc1ccc(CN(C(=O)c2ccco2)C2CCS(=O)(=O)C2)cc1 (centres undefined) the Potency was inconclusive: 39.8 µM [inhibitor, single point]. For Brc1cc(Br)c2ncnc(N3CCCCC3)c2c1, the Potency was inconclusive: 22.4 µM [inhibitor, single point]. In the case of Cc1cc(N2CCN(c3ccc([N+](=O)[O-])c4cccnc34)CC2)c2ccccc2n1, the Potency is reported as inconclusive: 1.41 µM [inhibitor, full curve]. Cc1cc2cc(CNS(=O)(=O)c3ccccc3)ccc2n1C was tested, and the Potency was inconclusive: 14.1 µM [inhibitor, partial curve]. For S=C(NCc1ccco1)Nc1ccc(Oc2ccccc2)cc1, the Potency was inconclusive: 22.4 µM [inhibitor, single point]. With CC(C)Oc1ccc(CNC(=O)CCCn2c(=O)c3cccn3c3ccccc32)cc1 the Potency was inconclusive: 3.16 µM [inhibitor, full curve]. For O=C1C(NS(=O)(=O)c2cccs2)=C(N2CCN(c3ccccc3)CC2)C(=O)c2ccccc21, the Potency was active: 6.31 µM. With Cc1ccc(C)n1-c1ccc(C(=O)/C=C/N(C)C)cc1 the Potency was “inactive”. CCOc1ccc(-n2c(CCC(=O)O)ccc2-c2ccc(Br)cc2)cc1 was tested, and the Potency was inconclusive: 10 µM [inhibitor, partial curve, poor fit]. For c1ccc2c(c1)ncn2CCCCOc1ccc2c(c1)CCC2, the Potency was inconclusive: 11.2 µM [inhibitor, partial curve]. In the case of CCOc1ccc(-n2c(SCC(=O)N3CCCC3)nc3c([nH]c4ccccc43)c2=O)cc1, the Potency is reported as “inactive”. In the case of COC(=O)N/N=C/c1c[nH]c2ccccc12, the Potency is reported as “inactive”. For CC1=Nc2cc(C(=O)NCCc3ccc(Cl)cc3)ccc2Sc2ccc(C)cc21, the Potency was “inactive”. With COc1ccc(C2(O)CCN(C(=O)c3c(F)cccc3F)CC2)cc1 the Potency was “inactive”. In the case of CC1(C)CC(=O)C(=CN2CCOCC2)C(=O)C1, the Potency is reported as active: 15.8 µM. C(=N\C(/N=C/c1ccco1)c1ccco1)/c1ccco1 was tested, and the Potency was inconclusive: 15.8 µM [inhibitor, partial curve]. In the case of Cc1ccc(C(C)C)c(OCC(=O)Nc2cccc(NC(=O)c3ccco3)c2)c1, the Potency is reported as inconclusive: 17.8 µM [inhibitor, partial curve]. C=C(C(C)=O)C(O)c1ccco1 (centres undefined) was tested, and the Potency was active: 28.2 µM. Cc1cc2c3c(cccc3n1)C(=O)c1ccccc1-2 was tested, and the Potency was inconclusive: 39.8 µM [inhibitor, partial curve]. COc1ccc(C(=O)NCc2nnc(SCC(=O)N3CCc4ccccc43)n2Cc2ccccc2)cc1 was tested, and the Potency was inconclusive: 44.7 µM [inhibitor, single point]. With Cn1/c(=N/N=C/c2ccc(Cl)c([N+](=O)[O-])c2)sc2ccccc21 the Potency was inconclusive: 2.82 µM [inhibitor, full curve]. With Cc1[nH]c2ccccc2c1C(c1ccccn1)N1CCC(C(N)=O)CC1 (centres undefined) the Potency was inconclusive: 8.91 µM [inhibitor, partial curve]. With CCC(C)[C@@H](N)C(=O)N/N=C/c1cccc2nccnc12 (some centres undefined) the Potency was inconclusive: 20 µM [inhibitor, single point]. For NS(=O)(=O)c1ccc(-c2ccc(/C=C3\C(=O)Nc4cc(Cl)ccc43)o2)cc1, the Potency was inconclusive: 1.58 µM [inhibitor, full curve]. For COc1cccc(C2=CC(c3ccc(OC)c(OC)c3OC)n3ncnc3N2)c1 (centres undefined), the Potency was “inactive”. For COc1ccc(C(=O)N/N=C/c2cccc3cccnc23)cc1, the Potency was “inactive”. In the case of Cc1cccc(NS(=O)(=O)c2ccc3[nH]c(=O)ccc3c2)c1C, the Potency is reported as “inactive”. O=C(Nc1ccccc1)C1CCCCC1 was tested, and the Potency was “inactive”. For Cc1cccc(N=C2NN=C(c3ccccc3F)CS2)c1C, the Potency was inconclusive: 31.6 µM [inhibitor, single point]. In the case of COC(=O)c1cc(-c2ccc(Br)cc2)on1, the Potency is reported as inconclusive: 25.1 µM [inhibitor, single point]. With CC(C)(C)OC(=O)NCCCC[C@H](NC(=O)c1nc[nH]c1C(=O)NC(c1ccccc1)c1ccccc1)C(=O)OC(C)(C)C the Potency was “inactive”.
